Test results as given in US11178870B2 (priority 2017, dated 2021).

Columns and labels:
Type in all cases: in vivo
Plasmopara viticola = assay: Test Example G: Downy mildew on vine; details: for Test G control value: Downy mildew on vine, 250 ppm sprayed, 7 to 10 days after inoculation; for Test G control value / Test G control value (downy mildew on vine): 2.5 ml/pot; for Test G control value (downy mildew on vine): 250 ppm spray, investigated 7 to 10 days after inoculation; for control value, Test G (downy mildew on vine): 250 ppm sprayed (2.5 ml/pot) before inoculation, assessed 7 to 10 days after inoculation
Botrytis cinerea = assay: Test Example B: Gray mold on tomato; details: for Test B control value: Gray mold on tomato; for Test B control value (gray mold on tomato): class of control value, Table 7; for control value, Test B (gray mold on tomato): Table 7, Test B
[1] = tested on: Blumeria graminis f. sp. hordei; assay: Test Example D: Powdery mildew on barley; details: for Test D control value: Powdery mildew on barley; for Test D control value (powdery mildew on barley): class of control value, Table 7; for control value, Test D (powdery mildew on barley): Table 7, Test D
Puccinia recondita = assay: Test Example E: Brown rust on wheat; details: for Test E control value: Brown rust on wheat; for Test E control value (brown rust on wheat): class of control value, Table 7; for control value, Test E (brown rust on wheat): Table 7, Test E
Alternaia brassicicola = assay: Test Example C: Alternaria sooty spot on cabbage; details: for Test C control value: Alternaria sooty spot on cabbage; for Test C control value (Alternaria sooty spot on cabbage): class of control value, Table 7; for control value, Test C (Alternaria sooty spot on cabbage): Table 7, Test C

Compound: CCn1c(-c2c(F)cc(F)cc2F)c(-c2cccnc2Cl)cc(Br)c1=O [Compound 63]
- Test G control value (Plasmopara viticola): H (H shows the control value more than 50%)
- Test B control value (Botrytis cinerea): H (H shows the control value more than 50%)
- Test D control value [1]: H (H shows the control value more than 50%)
- Test E control value (Puccinia recondita): H (H shows the control value more than 50%)
- Test C control value (Alternaia brassicicola): H (H shows the control value more than 50%)

Compound: Cn1c(-c2ccc(F)cc2Cl)c(-n2cc(Cl)cn2)ccc1=O [Compound 451]
- Test G control value (downy mildew on vine) (Plasmopara viticola): H (H shows the control value more than 50%)
- Test B control value (gray mold on tomato) (Botrytis cinerea): L (L shows the control value of 50% or less)
- Test D control value (powdery mildew on barley) [1]: H (H shows the control value more than 50%)
- Test E control value (brown rust on wheat) (Puccinia recondita): H (H shows the control value more than 50%)
- Test C control value (Alternaria sooty spot on cabbage) (Alternaia brassicicola): H (H shows the control value more than 50%)

Compound: CCn1c(-c2ccc(OC)cc2Br)c(-n2cc(Cl)cn2)cc(Cl)c1=O [Compound 167]
- Test G control value (Plasmopara viticola): H (H shows the control value more than 50%)
- Test B control value (Botrytis cinerea): H (H shows the control value more than 50%)
- Test D control value [1]: L (L shows the control value of 50% or less)
- Test E control value (Puccinia recondita): H (H shows the control value more than 50%)
- Test C control value (Alternaia brassicicola): H (H shows the control value more than 50%)

Compound: CCn1c(-c2c(F)cccc2Br)c(-n2cc(F)cn2)cc(Br)c1=O [Compound 392]
- Test G control value (downy mildew on vine) (Plasmopara viticola): L (L shows the control value of 50% or less)
- Test B control value (gray mold on tomato) (Botrytis cinerea): H (H shows the control value more than 50%)
- Test D control value (powdery mildew on barley) [1]: L (L shows the control value of 50% or less)
- Test E control value (brown rust on wheat) (Puccinia recondita): L (L shows the control value of 50% or less)
- Test C control value (Alternaria sooty spot on cabbage) (Alternaia brassicicola): H (H shows the control value more than 50%)

Compound: CCn1c(-c2ccc(F)cc2F)c(-n2cc(Cl)cn2)cc(Br)c1=O [Compound 150]
- Test G control value (Plasmopara viticola): L (L shows the control value of 50% or less)
- Test B control value (Botrytis cinerea): H (H shows the control value more than 50%)
- Test D control value [1]: H (H shows the control value more than 50%)
- Test E control value (Puccinia recondita): H (H shows the control value more than 50%)
- Test C control value (Alternaia brassicicola): H (H shows the control value more than 50%)

Compound: CCn1c(-c2ccc(F)cc2Cl)c(-n2cc(F)cn2)cc(Br)c1=O [Compound 329]
- control value, Test G (downy mildew on vine) (Plasmopara viticola): L (L shows the control value of 50% or less)
- control value, Test B (gray mold on tomato) (Botrytis cinerea): H (H shows the control value more than 50%)
- control value, Test D (powdery mildew on barley) [1]: L (L shows the control value of 50% or less)
- control value, Test E (brown rust on wheat) (Puccinia recondita): L (L shows the control value of 50% or less)
- control value, Test C (Alternaria sooty spot on cabbage) (Alternaia brassicicola): H (H shows the control value more than 50%)

Compound: CCn1c(-c2ccccc2F)c(-n2cc(Cl)cn2)ccc1=O [Compound 217]
- control value, Test G (downy mildew on vine) (Plasmopara viticola): L (L shows the control value of 50% or less)
- control value, Test B (gray mold on tomato) (Botrytis cinerea): H (H shows the control value more than 50%)
- control value, Test D (powdery mildew on barley) [1]: H (H shows the control value more than 50%)
- control value, Test E (brown rust on wheat) (Puccinia recondita): H (H shows the control value more than 50%)
- control value, Test C (Alternaria sooty spot on cabbage) (Alternaia brassicicola): H (H shows the control value more than 50%)

Compound: CCn1c(-c2c(F)cc(F)cc2F)c(-n2cc(Cl)c(C)n2)cc(Br)c1=O [Compound 144]
- Test G control value (Plasmopara viticola): L (L shows the control value of 50% or less)
- Test B control value (Botrytis cinerea): L (L shows the control value of 50% or less)
- Test D control value [1]: L (L shows the control value of 50% or less)
- Test E control value (Puccinia recondita): L (L shows the control value of 50% or less)
- Test C control value (Alternaia brassicicola): H (H shows the control value more than 50%)

Compound: Cc1sc(Br)cc1-c1cc(Br)c(=O)n(CC(F)F)c1-c1c(F)cccc1F [Compound 494]
- Test G control value (downy mildew on vine) (Plasmopara viticola): H (H shows the control value more than 50%)
- Test B control value (gray mold on tomato) (Botrytis cinerea): L (L shows the control value of 50% or less)
- Test D control value (powdery mildew on barley) [1]: H (H shows the control value more than 50%)
- Test E control value (brown rust on wheat) (Puccinia recondita): H (H shows the control value more than 50%)
- Test C control value (Alternaria sooty spot on cabbage) (Alternaia brassicicola): H (H shows the control value more than 50%)

Compound: CCn1c(-c2ccc(OC)cc2Cl)c(-c2ccsc2Cl)cc(Cl)c1=O [Compound 502]
- Test G control value (downy mildew on vine) (Plasmopara viticola): H (H shows the control value more than 50%)
- Test B control value (gray mold on tomato) (Botrytis cinerea): H (H shows the control value more than 50%)
- Test D control value (powdery mildew on barley) [1]: L (L shows the control value of 50% or less)
- Test E control value (brown rust on wheat) (Puccinia recondita): H (H shows the control value more than 50%)
- Test C control value (Alternaria sooty spot on cabbage) (Alternaia brassicicola): H (H shows the control value more than 50%)

Compound: CCn1c(-c2c(F)cc(F)cc2F)c(-n2cc(C)c(C)n2)ccc1=O [Compound 109]
- Test G control value (Plasmopara viticola): L (L shows the control value of 50% or less)
- Test B control value (Botrytis cinerea): H (H shows the control value more than 50%)
- Test D control value [1]: H (H shows the control value more than 50%)
- Test E control value (Puccinia recondita): H (H shows the control value more than 50%)
- Test C control value (Alternaia brassicicola): H (H shows the control value more than 50%)

Compound: CCn1c(-c2c(F)cccc2F)c(-c2sccc2C)cc(Br)c1=O [Compound 389]
- Test G control value (downy mildew on vine) (Plasmopara viticola): L (L shows the control value of 50% or less)
- Test B control value (gray mold on tomato) (Botrytis cinerea): H (H shows the control value more than 50%)
- Test D control value (powdery mildew on barley) [1]: H (H shows the control value more than 50%)
- Test E control value (brown rust on wheat) (Puccinia recondita): H (H shows the control value more than 50%)
- Test C control value (Alternaria sooty spot on cabbage) (Alternaia brassicicola): H (H shows the control value more than 50%)

Compound: Cc1ccccc1-c1c(-n2ncc(C)c2Cl)cc(Cl)c(=O)n1CC(F)F [Compound 306]
- control value, Test G (downy mildew on vine) (Plasmopara viticola): L (L shows the control value of 50% or less)
- control value, Test B (gray mold on tomato) (Botrytis cinerea): H (H shows the control value more than 50%)
- control value, Test D (powdery mildew on barley) [1]: H (H shows the control value more than 50%)
- control value, Test E (brown rust on wheat) (Puccinia recondita): H (H shows the control value more than 50%)
- control value, Test C (Alternaria sooty spot on cabbage) (Alternaia brassicicola): H (H shows the control value more than 50%)

Compound: CCn1c(-c2c(F)cc(F)cc2F)c(-n2cc(C)cn2)cc(C)c1=O [Compound 86]
- Test G control value (Plasmopara viticola): L (L shows the control value of 50% or less)
- Test B control value (Botrytis cinerea): H (H shows the control value more than 50%)
- Test D control value [1]: H (H shows the control value more than 50%)
- Test E control value (Puccinia recondita): H (H shows the control value more than 50%)
- Test C control value (Alternaia brassicicola): H (H shows the control value more than 50%)

Compound: CCn1c(-c2c(F)cccc2Cl)c(-n2cc(F)cn2)ccc1=O [Compound 378]
- Test G control value (downy mildew on vine) (Plasmopara viticola): L (L shows the control value of 50% or less)
- Test B control value (gray mold on tomato) (Botrytis cinerea): H (H shows the control value more than 50%)
- Test D control value (powdery mildew on barley) [1]: H (H shows the control value more than 50%)
- Test E control value (brown rust on wheat) (Puccinia recondita): H (H shows the control value more than 50%)
- Test C control value (Alternaria sooty spot on cabbage) (Alternaia brassicicola): H (H shows the control value more than 50%)

Compound: CCn1c(-c2c(F)cc(F)cc2F)c(-c2nn(C)cc2C)cc(Cl)c1=O [Compound 19]
- Test G control value (Plasmopara viticola): L (L shows the control value of 50% or less)
- Test B control value (Botrytis cinerea): H (H shows the control value more than 50%)
- Test D control value [1]: H (H shows the control value more than 50%)
- Test E control value (Puccinia recondita): H (H shows the control value more than 50%)
- Test C control value (Alternaia brassicicola): H (H shows the control value more than 50%)

Compound: CCn1c(-c2c(F)cc(F)cc2F)c(-n2cc(F)cn2)cc(Br)c1=O [Compound 194]
- control value, Test G (downy mildew on vine) (Plasmopara viticola): L (L shows the control value of 50% or less)
- control value, Test B (gray mold on tomato) (Botrytis cinerea): H (H shows the control value more than 50%)
- control value, Test D (powdery mildew on barley) [1]: H (H shows the control value more than 50%)
- control value, Test E (brown rust on wheat) (Puccinia recondita): H (H shows the control value more than 50%)
- control value, Test C (Alternaria sooty spot on cabbage) (Alternaia brassicicola): H (H shows the control value more than 50%)

Compound: COc1ccc(-c2c(-n3cc(Cl)cn3)cc(Br)c(=O)n2CC(F)F)c(Br)c1 [Compound 288]
- control value, Test G (downy mildew on vine) (Plasmopara viticola): L (L shows the control value of 50% or less)
- control value, Test B (gray mold on tomato) (Botrytis cinerea): H (H shows the control value more than 50%)
- control value, Test D (powdery mildew on barley) [1]: L (L shows the control value of 50% or less)
- control value, Test E (brown rust on wheat) (Puccinia recondita): H (H shows the control value more than 50%)
- control value, Test C (Alternaria sooty spot on cabbage) (Alternaia brassicicola): H (H shows the control value more than 50%)

Compound: CCn1c(-c2c(F)cc(F)cc2F)c(C2OCCO2)cc(Cl)c1=O [Compound 9]
- Test G control value (Plasmopara viticola): L (L shows the control value of 50% or less)
- Test B control value (Botrytis cinerea): H (H shows the control value more than 50%)
- Test D control value [1]: H (H shows the control value more than 50%)
- Test E control value (Puccinia recondita): L (L shows the control value of 50% or less)
- Test C control value (Alternaia brassicicola): H (H shows the control value more than 50%)

Compound: CCn1c(-c2c(F)cc(OC)cc2F)c(-n2cc(Br)cn2)cc(Br)c1=O [Compound 78]
- Test G control value (Plasmopara viticola): L (L shows the control value of 50% or less)
- Test B control value (Botrytis cinerea): H (H shows the control value more than 50%)
- Test D control value [1]: H (H shows the control value more than 50%)
- Test E control value (Puccinia recondita): H (H shows the control value more than 50%)
- Test C control value (Alternaia brassicicola): H (H shows the control value more than 50%)

Compound: CCn1c(-c2c(F)cc(F)cc2F)c(-c2c(Cl)cnn2C)cc(Cl)c1=O [Compound 22]
- Test G control value (Plasmopara viticola): H (H shows the control value more than 50%)
- Test B control value (Botrytis cinerea): H (H shows the control value more than 50%)
- Test D control value [1]: H (H shows the control value more than 50%)
- Test E control value (Puccinia recondita): H (H shows the control value more than 50%)
- Test C control value (Alternaia brassicicola): H (H shows the control value more than 50%)
